Measurements taken from US12421317B2, “Polynucleotides encoding anti-glucagon-like peptide 1 receptor (GLP1R) antagonist antibodies” (Regeneron Pharmaceuticals, Inc., priority 2020, dated 2025).
Marks after values point to notes of the source that are not given here.

Key:
[1] = molecular target: T1, hGLP1R-MMH (N-terminal region of human GLP1R-MMH) (Homo sapiens, UniProt P43220); assay: SPR (Biacore 4000) binding of captured GLP1R mAbs to hGLP1R-MMH
T1 construct: the N-terminal region of human GLP1R-MMH (hGLP1R-MMH)
Method: (§1) The equilibrium dissociation constant (KD) for GLP1R binding to selected GLP1R monoclonal antibodies (mAbs) was determined using a real-time surface plasmon resonance biosensor using a Biacore 4000 instrument. All binding studies were performed in 10 mM HEPES, 150 mM NaCl, 3 mM EDTA, and 0.05% v/v Surfactant Tween-20, pH 7.4 (HBS-ET) running buffer at 25° C. and 37° C. The Biacore CM5 sensor chip surface was first derivatized by amine coupling with human Fc specific mouse mAb to capture different GLP1R mAbs. Different concentrations (100, 25, and 6.25 nM) of the N-terminal region of human GLP1R-MMH (hGLP1R-MMH; SEQ ID NO: 59), human GLP1R expressed with mouse IgG2a Fc (hGLP1R-mFc; SEQ ID NO: 63), an in-line fusion protein of human desA-GLP1 and GLP1R-MMH (hdesA-GLP1_GLP1R-MMH; SEQ ID NO: 62), Macaca fascicularis GLP1R-MMH (mfGLP1R-MMH; SEQ ID NO: 60) or 100 nM mouse GLP1R-MMH (mGLP1R-MMH; SEQ ID NO: 61) prepared in HBS-ET running buffer were injected over the GLP1R mAb captured surface for 150 sec at a flow rate of 30 μL/min and their dissociation in HBS-ET running buffer was monitored for 10 minutes. At the end of each cycle, the GLP1R mAb capture surface was regenerated using a 12 sec injection of 20 mM phosphoric acid.
(§2) The association rate (ka) and dissociation rate (Kd) were determined by fitting the real-time binding sensorgrams to a 1:1 binding model with mass transport limitation using Scrubber 2.0 c curve-fitting software. Binding dissociation equilibrium constant (KD) and dissociative half-life (t½) were calculated from the kinetic rates as: […]

[2] = test system: mfGLP1R-MMH (Macaca fascicularis GLP1R-MMH); assay: SPR (Biacore 4000) binding of captured GLP1R mAbs to mfGLP1R-MMH
Method: as §1, §2

[3] = molecular target: T2, hdesA-GLP1_GLP1R-MMH (in-line fusion protein of human desA-GLP1 and GLP1R-MMH) (Homo sapiens, UniProt P43220); assay: SPR (Biacore 4000) binding of captured GLP1R mAbs to hdesA-GLP1_GLP1R-MMH
T2 construct: an in-line fusion protein of human desA-GLP1 and GLP1R-MMH (hdesA-GLP1_GLP1R-MMH)
Method: as §1, §2

[4] = molecular target: T3, mGLP1R-MMH (mouse GLP1R-MMH) (Mus musculus, UniProt O35659); assay: SPR (Biacore 4000) binding of captured GLP1R mAbs to mGLP1R-MMH
T3 construct: 100 nM mouse GLP1R-MMH (mGLP1R-MMH)
Method: as §1, §2

GLP1R humanized mice = assay: Exendin-4 induced hypoglycemia in GLP1R humanized mice (Example 5); type: in vivo; details: for Blood glucose levels / Percent differences in blood glucose levels from Group 1: Exendin-4 challenge, antibody 25 mg/kg s.c. on Day 0, mean
Method: For the study, 35 mice were randomly divided into one group of fourteen mice and three groups of seven mice. On Day 0, the group of fourteen animals (later divided into Groups 1 and 2) were administered subcutaneously (s.c.) with a mIgG2 isotype control antibody (referred to as Isotype control, dose of 25 mg/kg), whereas the other three groups (n=7/group) were each administered s.c. (dose of 25 mg/kg) with mAb36986 (Group 3), mAb37639 (Group 4), or mAb37645 (Group 5). The next day (Day 1), the isotype control administered fourteen animals were randomly divided into two groups (Group 1 and 2) of seven mice each. At 0 minute on Day 1, animals in Group 1 were administered intraperitoneally (i.p.) with saline, whereas animals in Group 2 were administered i.p. with Exendin-4 (dose of 0.01 mg/kg). At the same time point, animals in Groups 3, 4, and 5 were administered i.p. with Exendin-4 (dose of 0.01 mg/kg). For all animals, blood glucose levels were measured with a handheld glucometer immediately before saline or Exendin-4 administration, and 15, 30, 60, and 120 minutes post administration. All animals remained in their assigned groups until the study completion on Day 67. The Exendin-4 challenge performed on Day 1 was repeated on Days 8, 22, 46, and 67. Mean±SEM of percent differences in blood glucose levels from Group 1 at each time point was calculated for each group and shown in Table 16. Statistical analyses were performed by two-way ANOVA followed by Bonferroni post-hoc tests, comparing Groups 2, 3, 4, and 5 to Group 1.

T3 sequence (O35659 with tags, fused parts or gaps): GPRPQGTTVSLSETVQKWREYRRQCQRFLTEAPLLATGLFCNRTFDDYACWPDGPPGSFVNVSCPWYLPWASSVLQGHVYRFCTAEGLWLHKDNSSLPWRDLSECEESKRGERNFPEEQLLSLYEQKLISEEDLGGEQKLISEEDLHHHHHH
T2 sequence (P43220 with tags, fused parts or gaps): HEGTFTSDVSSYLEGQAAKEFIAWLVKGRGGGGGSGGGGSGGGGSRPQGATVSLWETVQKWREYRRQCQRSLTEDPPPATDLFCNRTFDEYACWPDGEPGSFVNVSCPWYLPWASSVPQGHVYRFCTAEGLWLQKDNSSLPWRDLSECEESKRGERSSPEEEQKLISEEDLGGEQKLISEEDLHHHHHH
T1 sequence (P43220 with tags, fused parts or gaps): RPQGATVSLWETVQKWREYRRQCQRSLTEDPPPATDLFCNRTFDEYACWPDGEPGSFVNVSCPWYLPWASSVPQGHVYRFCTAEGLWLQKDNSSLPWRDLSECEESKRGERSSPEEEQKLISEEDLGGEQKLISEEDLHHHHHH

B1: mAb36986: fully human anti-GLP1R antagonist antibody; HCVR/LCVR SEQ ID NOs: 2/10; heavy/light chain 18/20 (antibody)
heavy: QVQLVQSGTEVKKPGASVKVSCMASGYTFTTYGISWVRQAPGQGLEWMGWISAYNGNTKYAQRLQGRVTMTTDTSTTTAYMGLRGLRSDDTAVYFCARVTLSGRFDYWGQGTLVTVSPASTKGPSVFPLAPCSRSTSESTAALGCLVKDYFPEPVTVSWNSGALTSGVHTFPAVLQSSGLYSLSSVVTVPSSSLGTKTYTCNVDHKPSNTKVDKRV[human IgG4 Fc with S228P (EU numbers) not printed]
light: DIQMTQSPSSLSASVGDRVTITCQASQDISDYLNWYQQKPGKAPKLLIYDASNLETGVPSRFSGSGSGTDFTFTIRSLQPEDIATYYCQQYDNLPYTFGQGTKLEIKRTVAAPSVFIFPPSDEQLKSGTASVVCLLNNFYPREAKVQWKVDNALQSGNSQESVTEQDSKDSTYSLSSTLTLSKADYEKHKVYACEVTHQGLSSPVTKSFNRGEC
notes: fully human anti-GLP1R antagonist antibody; heavy/light chain 18/20
ka ([1]; 25° C.): 717000 M⁻¹ s⁻¹
kd ([1]; 25° C.): 9.97e-05 s⁻¹
ka ([1]; 37° C.): 915000 M⁻¹ s⁻¹
kd ([1]; 37° C.): 0.000544 s⁻¹
ka ([2]; 25° C.): 240000 M⁻¹ s⁻¹
kd ([2]; 25° C.): 0.000102 s⁻¹
ka ([2]; 37° C.): 315000 M⁻¹ s⁻¹
kd ([2]; 37° C.): 0.000501 s⁻¹
ka ([3]; 25° C.): 30400 M⁻¹ s⁻¹
kd ([3]; 25° C.): 0.000108 s⁻¹
ka ([3]; 37° C.): 16300 M⁻¹ s⁻¹
kd ([3]; 37° C.): 0.000987 s⁻¹
ka ([4]; 25° C.): 449000 M⁻¹ s⁻¹
kd ([4]; 25° C.): 0.00902 s⁻¹
ka ([4]; 37° C.): 649000 M⁻¹ s⁻¹
kd ([4]; 37° C.): 0.0485 s⁻¹
glucose normalizing effects during Exendin-4 challenges (GLP1R humanized mice; 25 mg/kg s.c. on Day 0, challenges on Days 1, 8, 22, 46, 67): glucose levels similar to the level measured from Group 1 at every time point on each day when Exendin-4 challenge was performed with exception of the last day (Day 67)
Blood glucose levels (GLP1R humanized mice; Day 1, 0 min): 214 mg/dL
Percent differences in blood glucose levels from Group 1 (GLP1R humanized mice; Day 1, 0 min): 11%
Blood glucose levels (GLP1R humanized mice; Day 1, 15 min): 248 mg/dL
Percent differences in blood glucose levels from Group 1 (GLP1R humanized mice; Day 1, 15 min): −3%
Blood glucose levels (GLP1R humanized mice; Day 1, 30 min): 252 mg/dL
Percent differences in blood glucose levels from Group 1 (GLP1R humanized mice; Day 1, 30 min): −1%
Blood glucose levels (GLP1R humanized mice; Day 1, 60 min): 225 mg/dL
Percent differences in blood glucose levels from Group 1 (GLP1R humanized mice; Day 1, 60 min): −4%
Blood glucose levels (GLP1R humanized mice; Day 1, 120 min): 218 mg/dL
Percent differences in blood glucose levels from Group 1 (GLP1R humanized mice; Day 1, 120 min): −2%
Blood glucose levels (GLP1R humanized mice; Day 8, 0 min): 196 mg/dL
Percent differences in blood glucose levels from Group 1 (GLP1R humanized mice; Day 8, 0 min): −8%
Blood glucose levels (GLP1R humanized mice; Day 8, 15 min): 238 mg/dL
Percent differences in blood glucose levels from Group 1 (GLP1R humanized mice; Day 8, 15 min): −8%
Blood glucose levels (GLP1R humanized mice; Day 8, 30 min): 245 mg/dL
Percent differences in blood glucose levels from Group 1 (GLP1R humanized mice; Day 8, 30 min): 0%
Blood glucose levels (GLP1R humanized mice; Day 8, 60 min): 242 mg/dL
Percent differences in blood glucose levels from Group 1 (GLP1R humanized mice; Day 8, 60 min): 0%
Blood glucose levels (GLP1R humanized mice; Day 8, 120 min): 199 mg/dL
Percent differences in blood glucose levels from Group 1 (GLP1R humanized mice; Day 8, 120 min): −5%
Blood glucose levels (GLP1R humanized mice; Day 22, 0 min): 207 mg/dL
Percent differences in blood glucose levels from Group 1 (GLP1R humanized mice; Day 22, 0 min): −1%
Blood glucose levels (GLP1R humanized mice; Day 22, 15 min): 251 mg/dL
Percent differences in blood glucose levels from Group 1 (GLP1R humanized mice; Day 22, 15 min): −6%
Blood glucose levels (GLP1R humanized mice; Day 22, 30 min): 232 mg/dL
Percent differences in blood glucose levels from Group 1 (GLP1R humanized mice; Day 22, 30 min): −8%
Blood glucose levels (GLP1R humanized mice; Day 22, 60 min): 229 mg/dL
Percent differences in blood glucose levels from Group 1 (GLP1R humanized mice; Day 22, 60 min): −4%
Blood glucose levels (GLP1R humanized mice; Day 22, 120 min): 219 mg/dL
Percent differences in blood glucose levels from Group 1 (GLP1R humanized mice; Day 22, 120 min): 5%
Blood glucose levels (GLP1R humanized mice; Day 46, 0 min): 180 mg/dL
Percent differences in blood glucose levels from Group 1 (GLP1R humanized mice; Day 46, 0 min): −2%
Blood glucose levels (GLP1R humanized mice; Day 46, 15 min): 237 mg/dL
Percent differences in blood glucose levels from Group 1 (GLP1R humanized mice; Day 46, 15 min): −3%
Blood glucose levels (GLP1R humanized mice; Day 46, 30 min): 224 mg/dL
Percent differences in blood glucose levels from Group 1 (GLP1R humanized mice; Day 46, 30 min): −10%
Blood glucose levels (GLP1R humanized mice; Day 46, 60 min): 222 mg/dL
Percent differences in blood glucose levels from Group 1 (GLP1R humanized mice; Day 46, 60 min): −2%
Blood glucose levels (GLP1R humanized mice; Day 46, 120 min): 206 mg/dL
Percent differences in blood glucose levels from Group 1 (GLP1R humanized mice; Day 46, 120 min): 11%
Blood glucose levels (GLP1R humanized mice; Day 67, 0 min): 199 mg/dL
Percent differences in blood glucose levels from Group 1 (GLP1R humanized mice; Day 67, 0 min): 2%
Blood glucose levels (GLP1R humanized mice; Day 67, 15 min): 210* mg/dL
Percent differences in blood glucose levels from Group 1 (GLP1R humanized mice; Day 67, 15 min): −21%
Blood glucose levels (GLP1R humanized mice; Day 67, 30 min): 144**** mg/dL
Percent differences in blood glucose levels from Group 1 (GLP1R humanized mice; Day 67, 30 min): −45*** %
Blood glucose levels (GLP1R humanized mice; Day 67, 60 min): 155*** mg/dL
Percent differences in blood glucose levels from Group 1 (GLP1R humanized mice; Day 67, 60 min): −34** %
Blood glucose levels (GLP1R humanized mice; Day 67, 120 min): 190 mg/dL
Percent differences in blood glucose levels from Group 1 (GLP1R humanized mice; Day 67, 120 min): −16%
hyperglycemia (GLP1R humanized mice; blood glucose at 0 minute vs Group 1, 25 mg/kg s.c., mice): does not cause hyperglycemia
duration of correction of GLP1-induced (exendin-4 induced) hypoglycemia (GLP1R humanized mice; single dose 25 mg/kg s.c., mice): ≥ 46 days
